According to ChEMBL document CHEMBL1201862, “PubChem BioAssay data set” (2004):
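Method: 48-hour compound exposure of cells in 96-well plates, five concentrations, linear interpolation of endpoints. Here, GI50 denotes the concentration required for 50% inhibition of growth.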 Activity calls are given as the source filed them. Cut-off read from the data, not from the text of the source: active = GI50 up to about 1.1 µM and inactive = higher.

The compounds below were run on NCI-H322M (assay: NCI anticancer screen, dose series, 48 h).

Q: N#Cc1cnsc1 was tested. Which GI50 did it give?
A: The GI50 was inactive: > 100 µM.

Q: CCOC(=O)C1=C(C)N(c2ccc(Cl)cc2)C2(O)C=CC(=O)C3C(=O)N(c4ccccc4)C(=O)C132 (stereo unspecified) was tested. Which GI50 did it give?
A: Its GI50 is inactive: 2.4 µM.

Q: Which GI50 does the source give for CCN1C(=O)/C(=C\Nc2ccccc2)S/C1=N/Nc1ncc(CC(=O)Nc2ccccc2C)s1 here?
A: The GI50 was inactive: > 100 µM.

Q: O=C1C2C3C=CC(C2C(=O)N1COP(=O)(O)O)C1C2C(=O)N(COP(=O)(O)O)C(=O)C2C31 (stereo unspecified) was tested. Which GI50 did it give?
A: The GI50 was inactive: > 100 µM.

Q: O=C1C2=C(CCCCC2)C2CCCCC12O (stereo unspecified) was tested. Which GI50 did it give?
A: The GI50 was inactive: > 100 µM.

Q: With CCOC(=O)C(C)(C)Oc1ccc2c(=O)cc(-c3ccccc3)oc2c1 as the compound, how does the GI50 read?
A: Its GI50 is inactive: > 100 µM.

Q: How did the GI50 turn out when O=C(N[C@@H](Cc1ccccc1)B(O)O)[C@H](Cc1cccc2ccccc12)NC(=O)N1CCOCC1 was run?
A: The GI50 was active: 0.155 µM.

Q: COc1ccc(Nc2nc3ccc(C(F)(F)F)cc3nc2-c2ccccc2)cc1OC was tested. Which GI50 did it give?
A: Its GI50 is inactive: 96.6 µM.

Q: Which GI50 does the source give for CC(C)(c1ccc(C=O)o1)c1ccc(C(C)(C)c2ccc(C=O)o2)o1 here?
A: Its GI50 is inactive: > 100 µM.

Q: How did the GI50 turn out when COc1c(N2CCCCC2)c2c(=O)c3ccccc3oc2c2c3ccccc3n(C)c12 was run?
A: The GI50 was inactive: > 100 µM.

Q: With CC(=O)CCn1c(=S)sc2ccccc21 as the compound, how does the GI50 read?
A: The GI50 was inactive: > 100 µM.

Q: How did the GI50 turn out when CC1N(O)C(c2ccccc2)C(c2ccccc2)=[N+]1[O-] (stereo unspecified) was run?
A: Its GI50 is inactive: > 100 µM.

Q: For C[C@H](CCC(=O)O)[C@H]1CC[C@H]2[C@@H]3C(=O)C[C@@H]4C[C@H](O)CC[C@]4(C)[C@H]3C[C@H](O)[C@]12C, which GI50 is on record?
A: The GI50 was inactive: > 100 µM.

Q: For CCCCOC(=O)NC(Nc1cccc(C(F)(F)F)c1)(C(F)(F)F)C(F)(F)F, which GI50 is on record?
A: Its GI50 is inactive: > 100 µM.

Q: How did the GI50 turn out when O=C1C=CC=C/C1=C1/SC(c2ccccc2)=C(O)N1c1ccccc1 was run?
A: Its GI50 is inactive: > 100 µM.

Q: For Cc1nc(O)nc2nc3cc(Cl)cc(Cl)c3c(NC(C)(CO)CO)c12, which GI50 is on record?
A: Its GI50 is inactive: > 100 µM.

Q: For COC1CC(OC2C(C)OC(OC3C(C)OC(OC4C(C)OC(O[C@H]5CC[C@@]6(C)C(=CC[C@]7(O)[C@@H]6C[C@@H](O)[C@@]6(C)[C@]7(O)CC[C@@]6(O)C(C)=O)C5)CC4OC)CC3OC)CC2OC)OC(C)C1O (stereo partly specified), which GI50 is on record?
A: The GI50 was inactive: > 12.5 µM.

Q: O=c1c2ccccc2ncn1COCc1ccccc1 was tested. Which GI50 did it give?
A: The GI50 was inactive: > 100 µM.

Q: How did the GI50 turn out when Nc1nc(Cl)nc(NCc2ccccc2)n1 was run?
A: The GI50 was inactive: > 100 µM.

Q: O=C1C(=O)N(c2ccc(Cl)cc2)C(=O)C(=O)C1c1nc2ccccc2s1 was tested. Which GI50 did it give?
A: Its GI50 is inactive: > 100 µM.

Q: With CCc1cc2c(c3c1CCCC3)CC1(Cc3ccc(C(=O)OC)cc3C1)C2 (stereo unspecified) as the compound, how does the GI50 read?
A: The GI50 was inactive: > 100 µM.

Q: How did the GI50 turn out when CCOC(=O)C(C/C=C/CO)N(C)C(=O)OC(C)(C)C (stereo unspecified) was run?
A: The GI50 was inactive: > 100 µM.

Q: For COC(=O)C1C(=O)N(CCc2c[nH]c3ccccc23)C[C@@H]2CCC(=O)C[C@H]12 (stereo partly specified), which GI50 is on record?
A: The GI50 was inactive: > 100 µM.

Q: For O=[N+]([O-])c1ccc2sc(/C=N/c3ccccn3)cc2c1, which GI50 is on record?
A: The GI50 was inactive: > 100 µM.

Q: How did the GI50 turn out when O=C1N2Cc3c4ccc5c3CN3C(=O)N6Cc7c(ccc(c7CN1C6(c1ccccc1)C23c1ccccc1)OCCOCCNCCOCCO4)OCCOCCNCCOCCO5 (stereo unspecified) was run?
A: The GI50 was inactive: 25.1 µM.

Q: Which GI50 does the source give for C/C=N\n1c(C)n[nH]c1=O here?
A: The GI50 was inactive: > 100 µM.

Q: With Cc1cc(C)c(-n2c(-c3ccccc3)cs/c2=N\N=C2C=C(C(C)(C)C)C(=O)C(C(C)(C)C)=C2)c(C)c1 as the compound, how does the GI50 read?
A: Its GI50 is inactive: > 100 µM.

Q: Which GI50 does the source give for Cc1cccc(N/C(=C(/C(Cl)=C(Cl)Cl)[N+](=O)[O-])n2nnc3ccccc32)c1 here?
A: Its GI50 is inactive: 24.2 µM.

Q: With NC(=O)Oc1ccccc1 [CARBAMIC ACID PHENYL ESTER] as the compound, how does the GI50 read?
A: Its GI50 is inactive: > 100 µM.

Q: With CCOc1ccccc1NC(=O)CC1C(=O)Nc2ccccc2[S+]1[O-] (stereo unspecified) as the compound, how does the GI50 read?
A: The GI50 was inactive: > 100 µM.

Q: With Cc1ccc2nc3c(C(=O)NCCN(C)C)cccc3nc2c1 as the compound, how does the GI50 read?
A: The GI50 was inactive: 3.5 µM.

Q: CN(c1ccccc1)c1c(Cl)c(=O)oc2c1ccc1occc12 was tested. Which GI50 did it give?
A: Its GI50 is inactive: > 100 µM.

Q: How did the GI50 turn out when Cc1nc2ccc(NC(=S)Nc3ccccc3)cc2c(=O)n1-c1ccccc1 was run?
A: Its GI50 is inactive: > 100 µM.

Q: Which GI50 does the source give for COP(=O)(OC)C(O)CC(C)C (stereo unspecified) here?
A: Its GI50 is inactive: > 100 µM.

Q: With O=C1/C(=C\c2ccc(F)cc2)CCOc2c1ccc1ccccc21 as the compound, how does the GI50 read?
A: The GI50 was inactive: 22.5 µM.

Q: For CCOC(=O)c1nc2ccccc2nc1Nc1ccc(F)cc1, which GI50 is on record?
A: Its GI50 is inactive: > 100 µM.

Q: How did the GI50 turn out when O=[As](O)(O)c1ccc(/N=N/c2ccc([As](=O)(O)O)cc2)cc1 was run?
A: Its GI50 is inactive: > 100 µM.

Q: With N#Cc1ccc(Cc2ccccn2)cc1Cl as the compound, how does the GI50 read?
A: The GI50 was inactive: > 100 µM.

Q: For COc1cc2nc(-c3ccccc3F)nc(O)c2cc1OC, which GI50 is on record?
A: The GI50 was inactive: > 100 µM.

Q: For CCCCc1ccc(Nc2nc(S)c3[nH]cnc3n2)cc1, which GI50 is on record?
A: The GI50 was inactive: 22 µM.

Q: How did the GI50 turn out when O=c1[nH]c2ccc(C(F)(F)F)cc2nc1-c1ccccc1 was run?
A: Its GI50 is inactive: > 100 µM.

Q: With CC1CC(c2ccc(Cl)cc2)=Nc2ccccc2S1 (stereo unspecified) as the compound, how does the GI50 read?
A: The GI50 was inactive: > 100 µM.

Q: For Cc1ccc(S(=O)(=O)N/N=C(\c2nc3ccc([N+](=O)[O-])cc3nc2O)C(O)c2ccccc2Cl)cc1 (stereo unspecified), which GI50 is on record?
A: Its GI50 is inactive: > 100 µM.

Q: With N#Cc1nc(COCCOCc2ccc(F)cc2)oc1N as the compound, how does the GI50 read?
A: The GI50 was inactive: > 100 µM.

Q: How did the GI50 turn out when COC(=O)c1ccc(OCc2ccc3nc(OC)c(OC)nc3c2)cc1 was run?
A: The GI50 was inactive: > 100 µM.

Q: Cc1ccc2nc(Cl)c(/C=N/N3C(=O)/C(=C/c4ccccc4S)N=C3c3ccccc3)cc2c1 was tested. Which GI50 did it give?
A: The GI50 was inactive: > 100 µM.
